Measured values published in PubChem BioAssay AID686978 (National Center for Advancing Translational Sciences (NCATS), 2013).
Values joined by “and” are separate entries in the source; they are usually repeats but may differ in a detail not shown here. Identical values can stand only once. The campaign covered roughly 420,000 compounds. About 64,000 (15%) were called active. The inconclusive results got no clear call from the source; some entries with a clear call stand among them for comparison. Calls come from the whole dose curve; as a rule, active = well fitted inhibition curve with a large enough effect; inconclusive = small, poorly fitted or top-dose-only effect; inactive = flat fitted curve, though single readings scatter. Potencies of inconclusive entries are doubtful fits and often do not repeat.

Test: qHTS for Inhibitors of human tyrosyl-DNA phosphodiesterase 1 (TDP1): qHTS in cells in absence of CPT; note: nearly all actives have a fitted effect of over 55% in size
Details: DT40 Tdp1-/- hTDP1 cells, no CPT, ATP luminescence, 48 h; series mostly up to 46.2 µM
Procedure, shortened: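 Luminescent ATP content (CellTiter-Glo) served as the growth readout. Knockout chicken DT40 cells expressing human TDP1 were exposed to compounds without camptothecin for a minimum 48 hr at 37 °C.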
Potency is the fitted concentration of half-maximal effect; tags give direction and shape of the fitted curve.

SMILES | Potency
COc1cc(C(=S)N2CCCC2)cc(Cl)c1OCC(=O)Nc1ccc(C)cc1C | inconclusive: 29.1 µM [inhibitor, single point]
COc1ccc(C2Nc3cccc4cccc(c34)N2)cc1 | inconclusive: 23.1 µM [inhibitor, partial curve, poor fit]
COc1ccc(/C=C/C(=O)Nc2c(C)nn(C)c2C)cc1COc1ccc(Br)cc1 | inconclusive: 8.2 µM [inhibitor, partial curve]
COc1ccc(F)cc1S(=O)(=O)NC1CCCC1 | inactive
NNC(=O)c1cccc(COc2ccc3c(c2)CCC3)c1 | inconclusive: 25.9 µM [inhibitor, partial curve]
CCc1c(C)c2ccc(OCC(N)=O)cc2oc1=O | inactive
CC1CN(S(=O)(=O)c2cccc(C(=O)NCc3ccc4c(c3)OCO4)c2)CC(C)O1 (stereo not drawn) | inconclusive: 23.1 µM [inhibitor, single point]
COc1ccc(C2CCc3cc(OC)c(OC)cc3C2NC=O)cc1OC (stereo not drawn) | inconclusive: 32.6 µM [inhibitor, single point]
OCCN(/C=N/c1nc(-c2ccc(Br)cc2)cs1)CCO | inconclusive: 29.1 µM [inhibitor, single point]
COc1ccc(CCN2CC(C(=O)NCCc3ccccc3C)CCC2=O)cc1 (stereo not drawn) | inactive
O=C(NC(=S)Nc1ccc(N2CCOCC2)c(Cl)c1)C(c1ccccc1)c1ccccc1 | inconclusive: 29.1 µM [inhibitor, single point]
CC(C)Oc1ccc(CNC(=O)Cn2ccc3cc(S(=O)(=O)N4CCCC4)ccc32)cc1 | inactive
O=C(NNC(=O)c1cnccn1)c1ccc(Cl)cc1 | active: 14.6 µM
O=C(c1ccc(COc2ccccc2Cl)o1)N1CCCC1 | inconclusive: 23.1 µM [inhibitor, single point]
CC(=O)Oc1c(Cl)cc(N(C(C)=O)S(=O)(=O)c2ccccc2)c2ccccc12 | active: 4.61 µM
CCn1c2ccc(C)cc2c2n[nH]c(=S)nc21 | inconclusive: 18.4 µM [inhibitor, single point]
O=C(N/N=C/c1ccncc1)c1cc(-c2ccc(Br)s2)[nH]n1 | inconclusive: 29.1 µM [inhibitor, single point]
Cc1cc(C)c2c(CN3CCN(c4ccccc4F)CC3)cc(=O)oc2c1 | inconclusive: 20.6 µM [inhibitor, single point]
O=C(CCNc1cccc(C(F)(F)F)c1)c1ccco1 | active: 16.4 µM
CCC1CSC(Nc2ccc(C(=O)/C=C/c3ccc(Br)cc3)cc2)=N1 (stereo not drawn) | inconclusive: 20.6 µM [inhibitor, single point]
Cc1nc(SCC(=O)Nc2cc(Cl)ccc2[N+](=O)[O-])nc(C)c1C | inconclusive: 29.1 µM [inhibitor, single point]
CN1CCN(c2nnc(-c3ccc(Cl)cc3)c3ccccc23)CC1 | inconclusive: 29.1 µM [inhibitor, single point]
CCCCc1c(-c2ccc(F)cc2)ncn1CCc1ccccc1OC | active: 20.6 µM

SMILES | Potency
CN(Cc1ccccc1)C(=O)c1ccc(NC(=O)Cc2cccc(NC(=O)C3CCCN(C(=O)C4CCCCC4)C3)c2)cc1 (stereo not drawn) | inconclusive: 23.1 µM [inhibitor, single point]
CCC(C)(C(=O)NC1CCCCC1)N(Cc1cccs1)C(=O)Cc1cccs1 (stereo not drawn) | inconclusive: 18.4 µM [inhibitor, partial curve]
CC(C)COCC(O)CCC(=O)NNC(=S)Nc1ccccc1 (stereo not drawn) | inconclusive: 29.1 µM [inhibitor, single point]
Nc1c(Br)cc(/C=C2\C=Cc3ccccc32)cc1Br | inconclusive: 22.4 µM [inhibitor, single point]
CC(C)CCN(Cc1ccco1)C(=O)c1cc2c(Cl)nc3ccccc3c2s1 | active: 16.4 µM
CCc1nnc(NS(=O)(=O)c2ccc(N/C=C\C(=O)c3ccc4ccccc4c3)cc2)s1 | inconclusive: 16.4 µM [inhibitor, single point]
Cc1cc2cc(C=C(C#N)C#N)c(Cl)nc2cc1C | active: 7.31 µM
OCc1c(OCc2cccc(F)c2)ccc2ccccc12 | inconclusive: 20.6 µM [inhibitor, single point]
CCCCNC(=O)N(O)C1N(/N=C/c2cccs2)C(=S)SC1(C)C (stereo not drawn) | inactive
CC(C)C[C@@H](CO)N1CCN(Cc2ccc([N+](=O)[O-])cc2)CCC1=O | inactive and inconclusive: 35.5 µM [inhibitor, single point]
Cc1c(C(=O)Nc2ccc3c(c2)OCO3)oc2ccccc12 | inconclusive: 20.6 µM [inhibitor, partial curve]
C=CCn1c(O)c(N=NC(=O)CNC(=O)c2cccs2)c2ccccc21 | inconclusive: 23.1 µM [inhibitor, single point]
COc1cccc(C(=O)C2CCCN(Cc3cn(CC(N)=O)c4ccccc34)C2)c1 (stereo not drawn) | inconclusive: 14.6 µM [inhibitor, single point]
COc1cc(OC)c(CN2CCOc3ccc(CN4CCC(O)CC4)cc3C2)c(OC)c1 | active: 23.1 µM
Cc1ccccc1S(=O)(=O)N1CC(C(=O)O)=CC[C@H]1c1ccc(Cl)cc1 | inactive
COc1cc(/C=N/NC(=S)NCc2ccco2)cc(OC)c1OC | inconclusive: 29.1 µM [inhibitor, single point]
CN(C)c1ccc(/C=C/c2ccnc3c(Cl)ccc(Cl)c23)cc1 | active: 10 µM
CCNS(=O)(=O)c1ccc(NC(=O)c2cc(C(F)(F)F)nn2C)cc1 | inconclusive: 29.1 µM [inhibitor, single point]
O=C(Nc1ccc(Br)cn1)c1cccc(C(=O)Nc2ccc(Br)cn2)c1 | inconclusive: 13 µM [inhibitor, partial curve]
CCOc1ccc(C2Nc3ccccc3-c3nnc(SCc4ccccc4)nc3O2)cc1OC (stereo not drawn) | inconclusive: 29.1 µM [inhibitor, single point]
O=C(NC(=S)Nc1nc(-c2cccc3ccccc23)cs1)c1cc2ccccc2o1 | inconclusive: 25.9 µM [inhibitor, single point]
CC(C(C(=O)N1CCCCC1)N1CCCCC1)N1CCCCC1 (stereo not drawn) | inactive
Cc1ccc(-c2cc(C(=O)Nc3ccccc3C(N)=O)c3ccccc3n2)o1 | active: 10.3 µM

SMILES | Potency
COc1ccc([N+](=O)[O-])cc1NC(=S)NC(NC(=O)Cc1ccc(OC)c(OC)c1)C(Cl)(Cl)Cl (stereo not drawn) | inconclusive: 29.1 µM [inhibitor, single point]
CSc1nsc(SCC(=O)Nc2nc3ccc(C)cc3s2)n1 | inconclusive: 23.1 µM [inhibitor, single point]
COc1ccc(CNC(=O)c2ccccc2NC(=O)C2=CSCCO2)c(OC)c1 | inconclusive: 16.4 µM [inhibitor, single point]
COc1ccc(-c2noc(CSCC(=O)Nc3cccc(C(F)(F)F)c3)n2)cc1OC | inactive
Cn1nc(-c2ccc(Cl)cc2)c2cc(C(=O)NCCN3CCOCC3)sc21 | inconclusive: 29.1 µM [inhibitor, single point]
COCCOc1ccc(C(F)(F)F)cc1N | inactive
Cc1cc2oc3c(c(=O)c2cc1C)C(c1ccc(C(C)C)cc1)N(CCCN1CCOCC1)C3=O (stereo not drawn) | inconclusive: 23.1 µM [inhibitor, single point]
Cc1ccc(-c2n[nH]c(Cc3ccccc3)n2)cc1 | inconclusive: 0.651 µM [inhibitor, full curve, poor fit]
COc1ccc(C2C(C(=O)/C=C/c3ccco3)=C(O)C(=O)N2CCN2CCOCC2)cc1OC (stereo not drawn) | inconclusive: 25.9 µM [inhibitor, single point]
Cc1ccc(CN2C(=O)c3ccccc3C2c2nnnn2-c2c(C)cccc2C)cc1 (stereo not drawn) | active: 29.1 µM
Cc1cc(C)cc(NC(=O)C2CCN(C(=O)[C@@H]3Cc4ccccc4CN3)CC2)c1 | inconclusive: 29.1 µM [inhibitor, single point]
CCOc1ccc(NC(=O)Nc2ccc3nccnc3c2)cc1 | active: 14.6 µM
CCCOc1ccc(-c2nn(-c3ccccc3)cc2C2NC(=O)NC(C)=C2C(=O)OC)cc1C (stereo not drawn) | inconclusive: 23.1 µM [inhibitor, single point]
COC(=O)C(N)Cc1ccc(O)cc1 (stereo not drawn) | inactive
Cc1ccc2c(c1)CCCN2C(=O)Nc1ccc2c(c1)OCO2 | inconclusive: 25.9 µM [inhibitor, partial curve]
C[C@@H]1CN([C@H](C)CO)C(=O)c2cc(NS(=O)(=O)c3cccs3)ccc2O[C@H]1CN(C)Cc1ccccc1 | inconclusive: 20.6 µM [inhibitor, single point]
Cc1cc(C(=O)N/N=C/c2ccccc2[N+](=O)[O-])c(C)o1 | inactive
Cc1ccccc1CNC(=O)C1CCCN(S(=O)(=O)N(C)c2ccc(F)cc2)C1 (stereo not drawn) | active: 18.4 µM
Cc1cc([N+](=O)[O-])nn1CC(=O)N/N=C/c1ccccc1F | inactive
COCCCNC(=O)C[C@H]1C[C@H](C(=O)N2CCOCC2)[C@@]2(CCC3CCCC3)c3[nH]c4cc(-c5ccco5)ccc4c3CCN2C1=O | inconclusive: 20.6 µM [inhibitor, single point]
COc1ccc(C(=O)NC(=S)Nc2ccc([N+](=O)[O-])cc2C)cc1OC | inconclusive: 25.9 µM [inhibitor, single point]
CCC(=O)N1CCc2cc(Br)cc(S(=O)(=O)CCC(=O)NCCc3ccc(Cl)cc3)c21 | inconclusive: 29.1 µM [inhibitor, single point]
